Experimental data reported in PubChem BioAssay AID485344 (National Center for Advancing Translational Sciences (NCATS), 2010).
Among all 340,000 compounds or so, about 6,900 (2%) were called active. No stated cut-off is given here; in the data, active means inhibition above about 30%; inactive means below that, where a call was filed. This is a selection; strong and weak results do not stand in their true shares. Entries without a call were filed so in the source.

target: D(2) dopamine receptor (Homo sapiens) (UniProt P14416); assay: HTS Assay for Allosteric Antagonists of the Human D2 Dopamine Receptor: Primary Screen for Antagonists; details: HEK293 TREx D2 cells, calcium flux, dopamine EC80; at 10 µM; stronger effect = higher value; further: 0% is about no effect
Method in brief: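 Tetracycline-induced HEK293 TREx cells expressing D2 receptor forced-coupled to calcium signalling, loaded with no-wash calcium dye. Compounds added and calcium flux read 180 s, then dopamine added at EC80 and read a further 180 s.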

UniProt P14416, sequence (P14416 whole entry, looked up): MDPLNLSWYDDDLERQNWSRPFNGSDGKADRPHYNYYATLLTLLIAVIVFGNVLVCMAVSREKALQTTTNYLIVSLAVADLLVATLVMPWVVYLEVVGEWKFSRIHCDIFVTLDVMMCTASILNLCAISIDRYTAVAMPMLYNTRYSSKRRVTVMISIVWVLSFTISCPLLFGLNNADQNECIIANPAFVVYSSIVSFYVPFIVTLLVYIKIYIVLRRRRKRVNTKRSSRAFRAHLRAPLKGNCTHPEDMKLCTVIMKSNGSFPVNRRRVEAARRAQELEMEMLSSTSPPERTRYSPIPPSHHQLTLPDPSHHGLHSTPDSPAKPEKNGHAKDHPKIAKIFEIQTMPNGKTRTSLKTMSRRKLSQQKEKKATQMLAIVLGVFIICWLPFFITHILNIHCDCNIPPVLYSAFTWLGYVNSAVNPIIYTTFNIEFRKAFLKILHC

SMILES | inhibition
O=C(Cn1cc(S(=O)(=O)Cc2cccc(Cl)c2)c2ccccc21)NCCc1ccccc1 | -4.07%
Clc1cccc(-n2ncc3c(N4CCCCC4)ncnc32)c1 | -12.2%
Cc1ccc(NC(=O)/C(C#N)=C/c2ccc(C(C)C)cc2)cc1C | -11.2%
CCOc1ccccc1C(=O)NC1CC2CCCC(C1)N2Cc1ccc(C)cc1 (centres undefined) | active: 83.8%
CC(=O)Nc1nonc1-c1nnc(SCC(=O)N(C)c2ccccc2)n1C | -17.7%
O=C(Cn1c(=O)nc(-c2ccccc2F)c2cc(Cl)ccc21)N1CCN(c2ccccc2F)CC1 | 16.4%
CCCCC(CC)CNC(=O)CN1C(=O)CSc2ccc(S(=O)(=O)N3CCOCC3)cc21 (centres undefined) | 18.3%
CCOc1ccccc1N(CC)C(=O)c1cc2c(=O)[nH]c3ccc(C)cc3c2s1 | 2.77%
COC(=O)c1scc(-c2ccc(C)cc2)c1S(=O)(=O)Nc1cc(OC)c(OC)c(OC)c1 | -4.36%
COc1ccc(CNC(=O)c2c3c(nc4ccccc24)C(=O)N(C2CCCCC2)C3)c(OC)c1 | 11.8%
CS(=O)(=O)Nc1cccc(C2=NN(S(=O)(=O)c3ccc(F)cc3)C(c3cccs3)C2)c1 (centres undefined) | active: 31.2%
C=C(C)CSc1nc2sc3c(c2c(=O)n1-c1ccccc1)CC(C(C)C)OC3 (centres undefined) | 0.817%
CCC1CN(C(=O)N2CCC(C(=O)NCc3cccc(C)c3)CC2)c2ccccc2O1 (centres undefined) | 4.61%
COc1ccc(Cn2c(SCc3ccc(C(=O)NC(C)C)cc3)nc3cccnc32)cc1 | 7.55%
CCc1ccc(CNC(=O)c2ccc(NC(=O)N3CCCCc4ccccc43)cc2)cc1 | 6.22%
COc1ccccc1NC(=O)c1cccc(S(=O)(=O)N2CCCCCC2)c1 | -17%
Cc1c(Cl)cccc1NC(=O)Nc1nnc(N2CCCCCC2)s1 | -11.7%
Cc1ccc(C(=O)Nc2cccc(C(=O)O)c2)cc1S(=O)(=O)N1CCCC1 | -9.02%
Cc1c(NS(=O)(=O)c2ccc(NC(=O)CCC(=O)O)cc2)c(=O)n(-c2ccccc2)n1C | active: 30.1%
CSc1cccc(Nc2nc3c(S(=O)(=O)c4ccccc4)nnn3c3ccc(Cl)cc23)c1 | -1.11%
O=C(Cn1ncc2ccc(Cl)cc21)NCc1ccc(F)cc1 | 20.6%
O=C1CN(C(=O)COc2ccc(Cl)cc2Cl)c2ccccc2N1 | active: 30.2%
O=C(c1ccc2c(c1)N(Cc1ccc(F)cc1)C(=O)c1ccccc1S2=O)N1CCC(Cc2ccccc2)CC1 (centres undefined) | -3.56%
COc1ccc(-c2[nH]ncc2C(=O)NCc2ccccc2C)cc1 | -2.21%

SMILES | inhibition
CC(=O)N1CCCc2cc(S(=O)(=O)N3CCC(C(=O)NCc4ccc(C)cc4)CC3)ccc21 | 3.26%
COC(=O)c1ccccc1NC(=O)Cn1c(=O)n(-c2cccc(OC)c2)c(=O)c2c(C)c(C(=O)N(C)C)sc21 | -2.19%
Cc1onc(-c2ccccc2Cl)c1C(=O)Oc1cc(F)cc(F)c1 | 16%
Cc1ccc(CCNC(=O)Cn2nc(-c3ccc(C)cc3)ccc2=O)cc1 | 15.3%
CCN(CC)CCNC(=O)c1cn(CC)c2ccc(S(=O)(=O)N3CCOCC3)cc2c1=O | 5.41%
O=C(Nc1ccc(O)cc1C(=O)O)c1ccc(NC(=O)c2ccco2)cc1 | active: 45.8%
CC(=O)Nc1cccc(NC(=O)C(=O)NCCc2sc(-c3ccccc3)nc2C)c1 | 11.9%
COc1ccc(OCC(=O)OCc2cc(=O)n3nc(C4CCCCC4)sc3n2)cc1 | 5.4%
COc1ccc(N2CCN(C(=O)c3cn(CC(C)C)c(=O)c4c3c3ccccc3n4C)CC2)cc1 | -11.7%
CCc1ccc(-c2nn(CC(=O)Nc3ccccc3)c3c2cnc2ccc(F)cc23)cc1 | 6.98%
CC(C)(C)C1CCc2c(sc(NC(=O)Cn3nnc(-c4ccccc4F)n3)c2C#N)C1 (centres undefined) | 7.09%
CCOc1ccc(N(C(=O)Cn2nnc3ccccc32)C(C(=O)NCc2ccccc2)c2ccc(OC)cc2)cc1 (centres undefined) | -3.32%
CCOC(=O)c1cc(-c2ccccc2)n(-c2cccc(C(=O)Nc3ccc(OC)cc3)c2)c1C | -4.29%
O=C(CSCc1ccccc1Cl)N1CCN(c2ccc(F)cc2)CC1 | 0.596%
CN1C(C(=O)Nc2ccc(F)cc2F)=CC(c2ccco2)=NS1(=O)=O | 14.5%
Cc1cccc(C)c1NC(=O)c1oc2ccc3c(c2c1C)C(=O)CC(C)(C)O3 | -1.67%
Cc1cc2oc(C(=O)Nc3c(C(=O)Nc4ccccc4)oc4ccccc34)cc(=O)c2cc1C | 5.62%
Cc1cccn2c(=O)c(C(=O)NCCCN3CCCCC3C)c(O)nc12 (centres undefined) | 0.838%
O=C(Cn1ncc2c1-c1ccccc1OC2)N1CCN(c2ccccc2F)CC1 | -3.28%
COc1ccccc1CNC(=O)C1CCCN(S(=O)(=O)c2ccc3c(c2)CCCN3C(C)=O)C1 (centres undefined) | -3.09%
CC1CCC(NC(=O)c2ccc3c(c2)N(Cc2ccccc2)C(=O)c2ccccc2S3=O)CC1 (centres undefined) | 26.3%
CCOC(=O)c1c(C)[nH]c(CCC(=O)Nc2cc(C)ccc2OC)c1C | -1.25%
CCOC(=O)c1cccc(NC(=O)CN2C(=O)c3ccccc3Sc3ncccc32)c1 | -4.33%
COc1cc(NC(=O)CC2C(=O)N(c3ccc(Cl)cc3)C(=O)N2Cc2cccs2)cc(OC)c1 (centres undefined) | 15.3%

SMILES | inhibition
Cc1ccc(C(=O)NCc2ccc(N(C)C)cc2)cc1NC(=O)c1nsc2ccccc12 | -5.09%
COc1ccc(CNC(=O)c2cnc3sc(N4CCCC4)nn3c2=O)cc1OC | 4.75%
O=C(CSc1c2c(nc3ccc(Cl)cc13)CCCC2)N1CCN(c2cccc(Cl)c2)CC1 | 6.19%
Cc1ccc2c(c1)C(c1ccc(F)cc1)N(C(=O)COc1ccc(Cl)cc1Cl)CC(=O)N2 (centres undefined) | 3.12%
Cc1cc2ncn(CCCCOc3ccccc3)c2cc1C | 7.25%
COc1cccc2cc(C(C)OC(=O)Nc3ccc(C)cc3)oc12 (centres undefined) | active: 32.2%
Cc1ccc(N2CCN(CC3CC=CCC3)CC2)cc1 (centres undefined) | active: 36.5%
CCc1nn2c(=O)cc(COC(=O)c3cccc(NC(=O)c4ccccc4Cl)c3)nc2s1 | 5.08%
O=[N+]([O-])c1cc([N+](=O)[O-])c(Oc2cccnc2Br)cc1NN1CCCCC1 | active: 34.8%
COC(=O)c1ccc(CN2CCCC(CO)(Cc3ccccc3F)C2)cc1 (centres undefined) | active: 83.7%
Cc1ccc(CNC(=O)C2CCCN(S(=O)(=O)c3cccc4nsnc34)C2)cc1 (centres undefined) | -1.7%
CCc1ccc2c(c1)c(=O)c(S(=O)(=O)c1ccc(F)cc1)cn2CC(=O)Nc1ccc(C)cc1C | 9.55%
CCOC(=O)c1ccc(Nc2c(-c3ccc(O)c(OC)c3)nc3nc[nH]n23)cc1 | 9.86%
Cc1cc(F)ccc1S(=O)(=O)NCC(c1ccco1)S(=O)(=O)c1cccs1 (centres undefined) | -0.593%
CC1Cc2cc(S(=O)(=O)N3CCN(c4ccccc4F)CC3)ccc2N1C(=O)C1CCC1 (centres undefined) | -7.89%
Cc1cc(C)c(S(=O)(=O)N/N=C/c2ccc3c(c2)OCO3)c(C)c1 | active: 73.8%
Cc1cc2nnc(SCC(=O)Nc3ccc(F)c(Cl)c3)n2c2ccccc12 | -0.245%
CC(=O)c1c(C)nc2nc(-c3ccccc3)nn2c1C | 27.5%
COC(=O)C1=C(CS(=O)(=O)c2cc(Cl)ccc2OC)NC(=O)NC1c1ccccc1 (centres undefined) | -0.601%
CCCCOc1ccc(C(=O)N2CCN(CCc3ccncc3)CC2)cc1 | 0.692%
COCCCNC(=O)c1oc2c(c1C)-c1nn(Cc3cccc(Cl)c3)cc1CC2 | 18.3%
CCN1CCN(CCCNC(=O)c2cc3c(=O)n(C)c4ccccc4c3s2)CC1 | -6.71%
O=C(NCCc1ccccc1)c1cnc2sc(N3CCCC3)nn2c1=O | -4.16%
CCCc1nn2c(=O)cc(COC(=O)c3cccc(NC(=O)COc4ccccc4C)c3)nc2s1 | -2.7%

SMILES | inhibition
Cc1cccc(OCCn2c(-c3ccc(Cl)cc3)nc3ccccc3c2=O)c1 | 5.71%
Cc1ccccc1-c1nc(CS(=O)(=O)CC(=O)NCC(C)c2ccccc2)c(C)o1 (centres undefined) | 16.2%
CCc1ccccc1NC(=O)Cn1c(=O)n(Cc2ccc3c(c2)OCO3)c(=O)c2ccc(C(=O)NC3CCCCC3)cc21 | -13.1%
O=C(COc1ccccc1Cl)NCC1(N2CCOCC2)CCCCC1 | -2.74%
COc1cc(OC)c(NC(=O)C2CCCN(c3ncnc4c3nc3n4CCCCC3)C2)cc1Cl (centres undefined) | -10.6%
CCc1ccc(OCC(=O)Nc2cc3oc4ccccc4c3cc2OC)cc1 | 4.37%
Cc1ccn2c(Nc3ccc4c(c3)OCCO4)c(-c3cccs3)nc2c1 | 10.6%
Cc1ccc2c(c1)Cc1c(nc(-c3ccc(Cl)cc3)nc1SCC(=O)N1CCCCC1)O2 | -15.1%
Cc1ccc2onc(CNC(=O)Nc3cc(F)ccc3F)c2c1 | 23.6%
Cc1ccc(NC(=O)C(CC(C)C)NS(=O)(=O)c2ccc3c(c2)oc(=O)n3C)c(C)c1 (centres undefined) | 19.9%
Cc1ccc(Cl)cc1NC(c1ccc(F)cc1)c1nnc(-c2ccccc2)o1 (centres undefined) | 0.837%
O=C(CC1NCCc2ccccc21)Nc1ccc(Cl)cc1 (centres undefined) | active: 43.8%
COc1ccc(Nc2cc(C)nc3c(C)c(C)ccc23)cc1 | 7.02%
CCc1ccc(C2CC(=O)c3c([nH]c(C(=O)OCCOc4ccccc4)c3C)C2)cc1 (centres undefined) | 10.2%
O=C(CSc1nnc(-c2ccc(Cl)cc2)o1)Nc1ccc(F)cc1 | 7.06%
CC(=O)N1CCc2c(sc3c2c(=O)n(CCc2ccccc2)c(=O)n3CC(=O)Nc2ccc(C)c(F)c2)C1 | 0.106%
COc1cccc2c1Oc1ncccc1N(c1ccc(C(=O)NCc3ccccc3Cl)s1)C2 | 5.43%
COc1ccc(N2CCN(c3ncnc4onc(-c5ccc(F)cc5)c34)CC2)cc1 | -9.77%
Cc1ccc(CCNC(=O)c2ccc3c(c2)N(Cc2ccccc2)C(=O)c2ccccc2S3=O)cc1 (centres undefined) | 14.3%
COc1ccc(NC(=O)Cn2c(=O)n(CCCC(=O)NCCc3ccc(C)cc3)c(=O)c3ccccc32)cc1Cl | -5.66%
Cc1cccc(NC(=O)c2ccc(F)c(S(=O)(=O)N3CCC4(CC3)OCCO4)c2)c1 | -18.3%
COc1cc(OC)c(NC(=O)N2CCc3cc(OC)c(OC)cc3C2CC(=O)O)cc1Cl (centres undefined) | -11.4%
